molecular target: Noro protease (Norovirus, UniProt Q83883); test: Norovirus protease inhibition assay (Noro-Norwalk FRET protease assay); settings: IC50 (μM), peptide substrate 10 μM, 90 minutes at 37° C., compounds 200 μM to 10.2 nM

Question: How did the IC50 turn out when `CCOP(=O)(OCC)C(O)C(CC1CC2(CCN(C(C)=O)CC2)NC1=O)NC(=O)C(CC(C)C)NC(=O)OCc1cccc(Cl)c1` (stereo in doubt) [Compound C69, 3-Chlorobenzyl ((2R)-1-((3-(8-acetyl-2-oxo-1,8-diazaspiro[4.5]decan-3-yl)-1-(diethoxyphosphoryl)-1-hydroxypropan-2-yl)amino)-4-methyl-1-oxopentan-2-yl)carbamate] was run?
Answer: Its IC50 is greater than 200 µM.

Question: Which IC50 does the source give for `CCOP(=O)(OCC)C(O)C(CC1CC2(CCCCC2)NC1=O)NC(=O)C(CC(C)C)NC(=O)OCc1cccc(Cl)c1` (stereo in doubt) [Compound C85, 3-Chlorobenzyl ((2R)-1-((1-(diethoxyphosphoryl)-1-hydroxy-3-(2-oxo-1-azaspiro[4.5]decan-3-yl)propan-2-yl)amino)-4-methyl-1-oxopentan-2-yl)carbamate] here?
Answer: Its IC50 is 143 µM.

Question: `CC(C)C[C@H](NC(=O)OC1CCCC1Cc1ccccc1)C(=O)NC(C[C@@H]1CCNC1=O)C(=O)C(=O)NC1CC1` (stereo in doubt) [Compound C89, 2-Benzylcyclopentyl ((S)-1-(((R)-4-(cyclopropylamino)-3,4-dioxo-1-((S)-2-oxopyrrolidin-3-yl)butan-2-yl)amino)-4-methyl-1-oxopentan-2-yl)carbamate] was tested. Which IC50 did it give?
Answer: Its IC50 is 99.2 µM.

Question: For `CCCC1CCC(OC(=O)NC(CC(C)C)C(=O)NC(CC2CC3(CCN(C(C)=O)CC3)NC2=O)C(O)P(=O)(OCC)OCC)CC1` (stereo in doubt) [Compound C91, 4-Propylcyclohexyl ((2R)-1-((3-(8-acetyl-2-oxo-1,8-diazaspiro[4.5]decan-3-yl)-1-(diethoxyphosphoryl)-1-hydroxypropan-2-yl)amino)-4-methyl-1-oxopentan-2-yl)carbamate], which IC50 is on record?
Answer: Its IC50 is greater than 200 µM.

Question: Which IC50 does the source give for `CC(=O)N1CCC2(CC1)CC(CC(NC(=O)C(Cc1ccccc1)NC(=O)c1cnc3ccccc3n1)C(=O)C(N)=O)C(=O)N2` (stereo in doubt) [Compound C130, N-((2S)-1-((1-(8-acetyl-2-oxo-1,8-diazaspiro[4.5]decan-3-yl)-4-amino-3,4-dioxobutan-2-yl)amino)-1-oxo-3-phenylpropan-2-yl)quinoxaline-2-carboxamide] here?
Answer: Its IC50 is greater than 200 µM.

Question: For `CC(=O)N1CCC2(CC1)CC(CC(C=O)NC(=O)[C@H](CC1CCCCC1)NC(=O)OCc1cccc(Cl)c1)C(=O)N2` (stereo partly drawn) [Compound C32, 3-Chlorobenzyl ((2S)-1-((1-(8-acetyl-2-oxo-1,8-diazaspiro[4.5]decan-3-yl)-3-oxopropan-2-yl)amino)-3-cyclohexyl-1-oxopropan-2-yl)carbamate], which IC50 is on record?
Answer: The IC50 was 4.2 µM.

Question: How did the IC50 turn out when `CC(C)C[C@H](NC(=O)N(Cc1ccccc1)C1CCN(C(=O)OC(C)(C)C)CC1)C(=O)N[C@H](C=O)C[C@@H]1CCNC1=O` [Compound C37, Tert-butyl 4-(1-benzyl-3-((S)-4-methyl-1-oxo-1-(((S)-1-oxo-3-((S)-2-oxopyrrolidin-3-yl)propan-2-yl)amino)pentan-2-yl)ureido)piperidine-1-carboxylate] was run?
Answer: The IC50 was 26 µM.

Question: With `CC(C)C[C@H](NC(=O)OC(Cc1ccccc1)c1ccccc1)C(=O)N[C@H](C=O)C[C@@H]1CCNC1=O` (stereo partly drawn) [Compound C38, 1,2-Diphenylethyl ((S)-4-methyl-1-oxo-1-(((S)-1-oxo-3-((S)-2-oxopyrrolidin-3-yl)propan-2-yl)amino)pentan-2-yl)carbamate] as the compound, how does the IC50 read?
Answer: Its IC50 is 3.7 µM.

Question: Which IC50 does the source give for `CC(C)C[C@H](NC(=O)OC1CCCC1Cc1ccccc1)C(=O)N[C@H](C=O)C[C@@H]1CCNC1=O` (stereo partly drawn) [Compound C43, 2-benzylcyclopentyl ((S)-4-methyl-1-oxo-1-(((S)-1-oxo-3-((S)-2-oxopyrrolidin-3-yl)propan-2-yl)amino)pentan-2-yl) carbamate] here?
Answer: The IC50 was 5.9 µM.

Question: How did the IC50 turn out when `O=CC(CC1CC(Cc2ccccc2)NC1=O)NC(=O)[C@H](CC1CCCCC1)NC(=O)OCc1cccc(Cl)c1` (stereo partly drawn) [Compound C52, 3-Chlorobenzyl ((2S)-1-((1-(5-benzyl-2-oxopyrrolidin-3-yl)-3-oxopropan-2-yl)amino)-3-cyclohexyl-1-oxopropan-2-yl)carbamate] was run?
Answer: The IC50 was 9.2 µM.

Question: Which IC50 does the source give for `CC(=O)N1CCC2(CC1)CC(CC(C=O)NC(=O)[C@H](CC(C)C)NC(=O)OCc1cccc(Cl)c1)C(=O)N2` (stereo partly drawn) [Compound C54, 3-Chlorobenzyl ((2S)-1-((1-(8-acetyl-2-oxo-1,8-diazaspiro[4.5]decan-3-yl)-3-oxopropan-2-yl)amino)-4-methyl-1-oxopentan-2-yl)carbamate] here?
Answer: The IC50 was 7 µM.

Question: With `CC(C)C[C@H](NC(=O)OCc1cccc(Cl)c1)C(=O)NC(C=O)CC1CC2(CCCCC2)NC1=O` (stereo partly drawn) [Compound C66, 3-Chlorobenzyl ((2S)-4-methyl-1-oxo-1-((1-oxo-3-(2-oxo-1-azaspiro[4.5]decan-3-yl)propan-2-yl)amino)pentan-2-yl)carbamate] as the compound, how does the IC50 read?
Answer: Its IC50 is 10.9 µM.

Question: `CC(=O)N1CCC2(CC1)CC(CC(C=O)NC(=O)[C@H](Cc1cccc(F)c1)NC(=O)OCc1cccc(Cl)c1)C(=O)N2` (stereo partly drawn) [Compound C67, 3-Chlorobenzyl ((2S)-1-((1-(8-acetyl-2-oxo-1,8-diazaspiro[4.5]decan-3-yl)-3-oxopropan-2-yl)amino)-3-(3-fluorophenyl)-1-oxopropan-2-yl)carbamate] was tested. Which IC50 did it give?
Answer: The IC50 was 9.1 µM.

Question: Which IC50 does the source give for `CC(C)C[C@H](NC(=O)OC(Cc1ccccc1)c1ccccc1)C(=O)N[C@@H](C[C@@H]1CCNC1=O)C(=O)C(=O)NCc1ccccn1` (stereo partly drawn) [Compound C68, 1,2-Diphenylethyl ((S)-1-(((S)-3,4-dioxo-1-((S)-2-oxopyrrolidin-3-yl)-4-((pyridin-2-ylmethyl)amino)butan-2-yl)amino)-4-methyl-1-oxopentan-2-yl)carbamate] here?
Answer: The IC50 was greater than 200 µM.

Question: For `CC(=O)N1CCC2(CC1)CC(CC(C=O)NC(=O)[C@H](CC(C)C)NC(=O)OCC(C)(C)c1cccc(Cl)c1)C(=O)N2` (stereo partly drawn) [Compound C70, 2-(3-Chlorophenyl)-2-methylpropyl ((2S)-1-((1-(8-acetyl-2-oxo-1,8-diazaspiro[4.5]decan-3-yl)-3-oxopropan-2-yl)amino)-4-methyl-1-oxopentan-2-yl)carbamate], which IC50 is on record?
Answer: The IC50 was 5.2 µM.

Question: With `CC(C)C[C@H](NC(=O)OC1(Cc2cccnc2)CC1)C(=O)N[C@H](C=O)C[C@@H]1CCNC1=O` [Compound C71, 1-(Pyridin-3-ylmethyl)cyclopropyl ((S)-4-methyl-1-oxo-1-(((S)-1-oxo-3-((S)-2-oxopyrrolidin-3-yl)propan-2-yl)amino)pentan-2-yl)carbamate] as the compound, how does the IC50 read?
Answer: The IC50 was 87 µM.

Question: With `CC(C)C[C@H](NC(=O)OCC(C)(C)c1cccc(Cl)c1)C(=O)N[C@@H](C[C@@H]1CCNC1=O)C(O)S(=O)(=O)O` (stereo partly drawn) [Compound C72, Sodium (2S)-2-((S)-2-(((2-(3-chlorophenyl)-2-methylpropoxy)carbonyl)amino)-4-methylpentanamido)-1-hydroxy-3-((S)-2-oxopyrrolidin-3-yl)propane-1-sulfonate] as the compound, how does the IC50 read?
Answer: The IC50 was 2.3 µM.

Question: Which IC50 does the source give for `CC(C)C[C@H](NC(=O)OC1(Cc2ccccc2)CCC1)C(=O)N[C@@H](C[C@@H]1CCNC1=O)C(=O)C(N)=O` [Compound C73, 1-Benzylcyclobutyl ((S)-1-(((S)-4-amino-3,4-dioxo-1-((S)-2-oxopyrrolidin-3-yl)butan-2-yl)amino)-4-methyl-1-oxopentan-2-yl)carbamate] here?
Answer: The IC50 was 39.1 µM.

Question: Which IC50 does the source give for `CC(=O)N1CCC2(CC1)CC(CC(C=O)NC(=O)[C@H](CC(C)C)NC(=O)c1cc3ccccc3[nH]1)C(=O)N2` (stereo partly drawn) [Compound C74, N-((2S)-1-((1-(8-acetyl-2-oxo-1,8-diazaspiro[4.5]decan-3-yl)-3-oxopropan-2-yl)amino)-4-methyl-1-oxopentan-2-yl)-1H-indole-2-carboxamide] here?
Answer: Its IC50 is 16.4 µM.

Question: With `CC(=O)N1CCC2(CC1)CC(CC(C=O)NC(=O)[C@H](CC1CCCCC1)NC(=O)c1cc3ccccc3[nH]1)C(=O)N2` (stereo partly drawn) [Compound C75, N-((2S)-1-((1-(8-acetyl-2-oxo-1,8-diazaspiro[4.5]decan-3-yl)-3-oxopropan-2-yl)amino)-3-cyclohexyl-1-oxopropan-2-yl)-1H-indole-2-carboxamide] as the compound, how does the IC50 read?
Answer: Its IC50 is 8.1 µM.

Question: With `CC(C)C[C@H](NC(=O)OC1(Cc2cccc(OCc3ccccc3)c2)CC1)C(=O)N[C@@H](CC1CCNC1=O)C(O)S(=O)(=O)O` (stereo partly drawn) [Compound C76, Sodium (2S)-2-((S)-2-(((1-(3-(benzyloxy)benzyl)cyclopropoxy)carbonyl)amino)-4-methylpentanamido)-1-hydroxy-3-((S)-2-oxopyrrolidin-3-yl)propane-1-sulfonate] as the compound, how does the IC50 read?
Answer: The IC50 was 10.5 µM.

Question: Which IC50 does the source give for `CCCC1CCC(OC(=O)N[C@@H](CC(C)C)C(=O)NC(C=O)CC2CC3(CCN(C(C)=O)CC3)NC2=O)CC1` (stereo partly drawn) [Compound C77, 4-Propylcyclohexyl ((2S)-1-((1-(8-acetyl-2-oxo-1,8-diazaspiro[4.5]decan-3-yl)-3-oxopropan-2-yl)amino)-4-methyl-1-oxopentan-2-yl)carbamate] here?
Answer: Its IC50 is 32.6 µM.

Question: `CC(C)C[C@H](NC(=O)OC(C)(C)Cc1ccccc1)C(=O)N[C@@H](C[C@@H]1CCNC1=O)C(=O)C(N)=O` [Compound C79] was tested. Which IC50 did it give?
Answer: The IC50 was greater than 200 µM.

Question: How did the IC50 turn out when `CCOP(=O)(OCC)C(O)C(CC1CC2(CCN(C(C)=O)CC2)NC1=O)NC(=O)[C@H](CC1CCCCC1)NC(=O)c1cc2ccccc2[nH]1` (stereo partly drawn) [Compound C81, Diethyl (3-(8-acetyl-2-oxo-1,8-diazaspiro[4.5]decan-3-yl)-2-((S)-3-cyclohexyl-2-(1H-indole-2-carboxamido)propanamido)-1-hydroxypropyl)phosphonate] was run?
Answer: Its IC50 is 23.9 µM.

Question: How did the IC50 turn out when `CCOP(=O)(OCC)C(O)C(CC1CC2(CCN(C(C)=O)CC2)NC1=O)NC(=O)[C@H](Cc1cccc(F)c1)NC(=O)OCc1cccc(Cl)c1` (stereo partly drawn) [Compound C82, 3-Chlorobenzyl ((2S)-1-((3-(8-acetyl-2-oxo-1,8-diazaspiro[4.5]decan-3-yl)-1-(diethoxyphosphoryl)-1-hydroxypropan-2-yl)amino)-3-(3-fluorophenyl)-1-oxopropan-2-yl)carbamate] was run?
Answer: The IC50 was 127 µM.

Question: How did the IC50 turn out when `CC(C)C[C@H](NC(=O)OCC(C)(C)c1cccc(Cl)c1)C(=O)NC(C)(C=O)CC1CCNC1=O` (stereo partly drawn) [Compound C83, 2-(3-Chlorophenyl)-2-methylpropyl ((2S)-4-methyl-1-((2-methyl-1-oxo-3-(2-oxopyrrolidin-3-yl)propan-2-yl)amino)-1-oxopentan-2-yl) carbamate] was run?
Answer: The IC50 was greater than 200 µM.

Source: patent US20230159453A1 (COCRYSTAL PHARMA, INC., priority 2020, published 2023)
